# T1: BMP-9 (UniProt Q9UK05 320-429)
# T1 sequence (looked up): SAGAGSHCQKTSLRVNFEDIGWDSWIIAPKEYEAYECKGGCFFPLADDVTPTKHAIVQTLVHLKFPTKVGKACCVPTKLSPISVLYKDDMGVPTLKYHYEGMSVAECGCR
# T2: BMP-10 (UniProt O95393 317-424)
# T2 sequence (looked up): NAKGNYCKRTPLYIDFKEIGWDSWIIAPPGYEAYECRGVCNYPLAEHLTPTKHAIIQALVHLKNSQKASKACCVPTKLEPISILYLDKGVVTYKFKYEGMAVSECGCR
# T3: GDF-8 (UniProt O14793 267-375)
# T3 sequence (looked up): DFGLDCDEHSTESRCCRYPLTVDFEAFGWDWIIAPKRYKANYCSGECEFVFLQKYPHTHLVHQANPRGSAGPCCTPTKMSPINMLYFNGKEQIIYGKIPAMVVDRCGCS
# T4: GDF-11 (UniProt O95390 299-407)
# T4 sequence (looked up): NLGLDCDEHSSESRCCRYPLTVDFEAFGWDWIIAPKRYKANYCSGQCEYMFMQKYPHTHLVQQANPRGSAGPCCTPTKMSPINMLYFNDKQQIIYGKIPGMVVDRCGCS
# T5: activin B (UniProt P09529 293-407)
# T5 sequence (looked up): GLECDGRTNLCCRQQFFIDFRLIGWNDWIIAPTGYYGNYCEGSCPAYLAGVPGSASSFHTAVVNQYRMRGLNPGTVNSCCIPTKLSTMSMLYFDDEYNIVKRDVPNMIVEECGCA
# T6: activin A (UniProt P08476 311-426)
# T6 sequence (looked up): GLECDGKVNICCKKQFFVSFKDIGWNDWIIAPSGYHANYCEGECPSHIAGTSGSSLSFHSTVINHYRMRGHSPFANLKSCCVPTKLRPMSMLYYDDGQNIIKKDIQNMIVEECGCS
# B1: P1156 (hActRIIB - F58K, 39aa linker, IgG1 FcDL) (Fc fusion)
# chain: ETRECIYYNANWELERTNQSGLERCEGEQDKRLHCYASWRNSSGTIELVKKGCWLDDKNCYDRQECVATEENPQVYFCCCEGNFCNERFTHLPEAGGPEVTYEPPPTGGGGSGGGGSGGGGSGGGGSGGGGSGGGGSGGGGSGG[omitted - human IgG1 Fc and a few adjoining residues]
# B2: P1213 (hActRIIB - F58N, 14aa linker, IgG1 FcDL) (Fc fusion)
# chain: ETRECIYYNANWELERTNQSGLERCEGEQDKRLHCYASWRNSSGTIELVKKGCWLDDNNCYDRQECVATEENPQVYFCCCEGNFCNERFTHLPEAGGPEVTYEPPPTGGGGSGGGGSGG[omitted - human IgG1 Fc and a few adjoining residues]
# B3: P1215 (hActRIIB - F58R, 14aa linker, IgG1 FcDL) (Fc fusion)
# chain: ETRECIYYNANWELERTNQSGLERCEGEQDKRLHCYASWRNSSGTIELVKKGCWLDDRNCYDRQECVATEENPQVYFCCCEGNFCNERFTHLPEAGGPEVTYEPPPTGGGGSGGGGSGG[omitted - human IgG1 Fc and a few adjoining residues]
# B4: P1217 (hActRIIB - F58H, 14aa linker, IgG1 FcDL) (Fc fusion)
# chain: ETRECIYYNANWELERTNQSGLERCEGEQDKRLHCYASWRNSSGTIELVKKGCWLDDHNCYDRQECVATEENPQVYFCCCEGNFCNERFTHLPEAGGPEVTYEPPPTGGGGSGGGGSGG[omitted - human IgG1 Fc and a few adjoining residues]
# B5: P119 (hActRIIB - G27D, 3aa linker, IgG1 FcEM) (Fc fusion)
# chain: ETRECIYYNANWELERTNQSGLERCEDEQDKRLHCYASWRNSSGTIELVKKGCWLDDFNCYDRQECVATEENPQVYFCCCEGNFCNERFTHLPEAGGPEVTYEPPPTG[omitted - human IgG1 Fc and a few adjoining residues]
# B6: P124 (hActRIIB - K31Y, 3aa linker, IgG1 FcEM) (Fc fusion)
# chain: ETRECIYYNANWELERTNQSGLERCEGEQDYRLHCYASWRNSSGTIELVKKGCWLDDFNCYDRQECVATEENPQVYFCCCEGNFCNERFTHLPEAGGPEVTYEPPPTG[omitted - human IgG1 Fc and a few adjoining residues]
# B7: P121 (hActRIIB - F58E, 3aa linker, IgG1 FcEM) (Fc fusion)
# chain: ETRECIYYNANWELERTNQSGLERCEGEQDKRLHCYASWRNSSGTIELVKKGCWLDDENCYDRQECVATEENPQVYFCCCEGNFCNERFTHLPEAGGPEVTYEPPPTG[omitted - human IgG1 Fc and a few adjoining residues]
# B8: P120 (hActRIIB - D57E, 3aa linker, IgG1 FcEM) (Fc fusion)
# chain: ETRECIYYNANWELERTNQSGLERCEGEQDKRLHCYASWRNSSGTIELVKKGCWLDEFNCYDRQECVATEENPQVYFCCCEGNFCNERFTHLPEAGGPEVTYEPPPTG[omitted - human IgG1 Fc and a few adjoining residues]
# B9: P122 (hActRIIB - Q29Y, 3aa linker, IgG1 FcEM) (Fc fusion)
# chain: ETRECIYYNANWELERTNQSGLERCEGEYDKRLHCYASWRNSSGTIELVKKGCWLDDFNCYDRQECVATEENPQVYFCCCEGNFCNERFTHLPEAGGPEVTYEPPPTG[omitted - human IgG1 Fc and a few adjoining residues]
# B10: P1155 (hActRIIB - F58K, 19aa linker, IgG1 FcDL) (Fc fusion)
# chain: ETRECIYYNANWELERTNQSGLERCEGEQDKRLHCYASWRNSSGTIELVKKGCWLDDKNCYDRQECVATEENPQVYFCCCEGNFCNERFTHLPEAGGPEVTYEPPPTGGGGSGGGGSGGGGSGG[omitted - human IgG1 Fc and a few adjoining residues]
# B11: P1168 (hActRIIB - F58E + C-term APT, 14aa linker, IgG1 FcDL) (Fc fusion)
# chain: ETRECIYYNANWELERTNQSGLERCEGEQDKRLHCYASWRNSSGTIELVKKGCWLDDENCYDRQECVATEENPQVYFCCCEGNFCNERFTHLPEAGGPEVTYEPPPTAPTGGGGSGGGGSGG[omitted - human IgG1 Fc and a few adjoining residues]
# B12: P1153 (hActRIIB - F58K, 6aa linker, IgG1 FcDL) (Fc fusion)
# chain: ETRECIYYNANWELERTNQSGLERCEGEQDKRLHCYASWRNSSGTIELVKKGCWLDDKNCYDRQECVATEENPQVYFCCCEGNFCNERFTHLPEAGGPEVTYEPPPTGGGG[omitted - human IgG1 Fc and a few adjoining residues]
# B13: P1218 (hActRIIB - F58Q, 6aa linker, IgG1 FcDL) (Fc fusion)
# chain: ETRECIYYNANWELERTNQSGLERCEGEQDKRLHCYASWRNSSGTIELVKKGCWLDDQNCYDRQECVATEENPQVYFCCCEGNFCNERFTHLPEAGGPEVTYEPPPTGGGG[omitted - human IgG1 Fc and a few adjoining residues]
# B14: P1154 (hActRIIB - F58K, 10aa linker, IgG1 FcDL) (Fc fusion)
# chain: ETRECIYYNANWELERTNQSGLERCEGEQDKRLHCYASWRNSSGTIELVKKGCWLDDKNCYDRQECVATEENPQVYFCCCEGNFCNERFTHLPEAGGPEVTYEPPPTGGGGSGGG[omitted - human IgG1 Fc and a few adjoining residues]
# B15: P1219 (hActRIIB - F58Q, 10aa linker, IgG1 FcDL) (Fc fusion)
# chain: ETRECIYYNANWELERTNQSGLERCEGEQDKRLHCYASWRNSSGTIELVKKGCWLDDQNCYDRQECVATEENPQVYFCCCEGNFCNERFTHLPEAGGPEVTYEPPPTGGGGSGGG[omitted - human IgG1 Fc and a few adjoining residues]
# B16: P1220 (hActRIIB - F58Q, 19aa linker, IgG1 FcDL) (Fc fusion)
# chain: ETRECIYYNANWELERTNQSGLERCEGEQDKRLHCYASWRNSSGTIELVKKGCWLDDQNCYDRQECVATEENPQVYFCCCEGNFCNERFTHLPEAGGPEVTYEPPPTGGGGSGGGGSGGGGSGG[omitted - human IgG1 Fc and a few adjoining residues]
# Biological target: T1, BMP-9
# Test: cell-based or functional assay
row,"Average IC50, BMP-9 neutralization (HepG2 BMP-reporter) [nM]",Binder
1,127,B1
2,192,B2
3,91,B3
4,23,B4
5,1.3,B5
6,15.9,B6
7,868,B7
8,> 1000,B8
9,2.7,B9
10,134,B10
11,> 100,B11
12,170,B12
13,101,B13
14,210,B14
15,59,B15

# Biological target: T2, BMP-10
# Test: cell-based or functional assay
row,"Average IC50, BMP-10 neutralization (HepG2 BMP-reporter) [nM]",Binder
1,2.1,B5
2,21,B6
3,1,B7
4,> 1000,B8
5,2.7,B9

# Biological target: T3, GDF-8
# Test: cell-based or functional assay
row,"Avg IC50, GDF-8 neutralization (HEK293 TGFβ-reporter) [nM]",Binder
1,1.1,B2
2,0.99,B3
3,0.56,B4
4,0.64,B5
5,7.1,B6
6,0.29,B7
7,> 1000,B8
8,0.62,B9
9,1.1,B10
10,0.55,B16
11,0.39,B11
12,1.5,B12
13,0.8,B13
14,1,B14
15,0.72,B15

# Biological target: T4, GDF-11
# Test: cell-based or functional assay
row,"Avg IC50, GDF-11 neutralization (HEK293 TGFβ-reporter) [nM]",Binder
1,0.97,B5
2,5.3,B6
3,0.4,B7
4,> 1000,B8
5,0.71,B9

# Biological target: T5, activin B
# Test: cell-based or functional assay
row,"Avg IC50, activin B neutralization (HEK293 TGFβ-reporter) [nM]",Binder
1,1.8,B5
2,22,B6
3,2.5,B7
4,> 1000,B8
5,2.5,B9

# Biological target: T6, activin A
# Test: cell-based or functional assay
row,"Avg IC50, activin A neutralization (HEK293 TGFβ-reporter) [nM]",Binder
1,0.32,B1
2,1.5,B2
3,0.58,B3
4,0.59,B4
5,0.98,B5
6,5.3,B6
7,1.3,B7
8,> 1000,B8
9,2.4,B9
10,0.36,B10
11,0.54,B16
12,0.35,B11
13,0.86,B12
14,1.1,B13
15,0.53,B14
16,0.78,B15
